Measurements from article PMC3559651, “Functional Roles of the Non-Catalytic Calcium-Binding Sites in the N-Terminal Domain of Human Peptidylarginine Deiminase 4” (PLoS ONE, 2013).

B1: human PAD4 N153A (enzyme)
chain: not shown
notes: peptidylarginine deiminase 4 (PAD4), human; cDNA in pQE30, site-directed mutant; same vector as the wild type; source: E. coli JM109, purified (Ni-NTA)
B2: human PAD4 D155A (enzyme)
chain: not shown
notes: as for B1
B3: human PAD4 D157A (enzyme)
chain: not shown
notes: as for B1
B4: human PAD4 D179A (enzyme)
chain: not shown
notes: as for B1

Molecular target: the molecule itself
Assay: AUC; sedimentation velocity; enzymes 0.3 mg/ml in 30 mM Tris-acetate (pH 7.4) at 25°C for 16 h, run at 20°C, 42,000 rpm; continuous size distribution (SEDFIT)

| Protein | stoichiometry N |
| --- | --- |
| B1 | 2 |
| B2 | 2 |
| B3 | 2 |
| B4 | 2 |
